# The other results are listed elsewhere or left out.
# Columns and labels:
# Assay in all cases: glycan array binding signal (z-score within array); higher = stronger binding
# Settings in all cases: glycan notation: IUPAC condensed, linker removed
# [1] = target: Gal3S(b1-4)Glc
# Summary of the method: (§1)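 Glycan array data were curated from 3228 arrays in the Consortium for Functional Glycomics database and kept only where the protein sequence was available. Glycan names were converted to IUPAC-condensed notation, and columns mapping to the same glycan were averaged. The binding signal is a within-array Z-score, averaged across arrays of the same protein sequence at different concentrations or buffers and across linkers. Negative Z-scores can be read as non-binding.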
# [2] = target: Gal3S(b1-4)Glc6S
# Summary of the method: as §1
# [3] = target: Gal3S(b1-4)GlcNAc
# Summary of the method: as §1
# [4] = target: Gal3S(b1-4)[Fuc(a1-3)]Glc6S
# Summary of the method: as §1
# [5] = target: Gal3S(b1-4)[Fuc(a1-3)]GlcNAc
# Summary of the method: as §1
# [6] = target: Gal3S(b1-4)[Fuc(a1-3)]GlcNAc6S
# Summary of the method: as §1
# [7] = target: Gal3S4S(b1-4)GlcNAc
# Summary of the method: as §1
# [8] = target: Gal3S6S(b1-4)GlcNAc
# Summary of the method: as §1
# [9] = target: Gal3S6S(b1-4)GlcNAc6S
# Summary of the method: as §1
# [10] = target: Gal4S(b1-4)GlcNAc
# Summary of the method: as §1
# [11] = target: Gal4S6S(b1-4)GlcNAc
# Summary of the method: as §1
# [12] = target: Gal6P(b1-4)GlcNAc
# Summary of the method: as §1
# [13] = target: Gal6S(b1-3)GlcNAc
# Summary of the method: as §1
# [14] = target: Gal6S(b1-3)GlcNAc6S
# Summary of the method: as §1
# [15] = target: Gal6S(b1-4)Glc
# Summary of the method: as §1
# [16] = target: Gal6S(b1-4)Glc6S
# Summary of the method: as §1
# [17] = target: Gal6S(b1-4)GlcNAc
# Summary of the method: as §1
# [18] = target: Gal6S(b1-4)GlcNAc6S
# Summary of the method: as §1
# [19] = target: GalNAc(a1-3)Gal
# Summary of the method: as §1
# [20] = target: GalNAc(a1-3)GalNAc
# Summary of the method: as §1
# [21] = target: GalNAc(a1-3)GalNAc(b1-3)Gal(a1-4)Gal(b1-4)Glc
# Summary of the method: as §1
# [22] = target: GalNAc(a1-3)GalNAc(b1-3)Gal(a1-4)Gal(b1-4)GlcNAc
# Summary of the method: as §1
# [23] = target: GalNAc(b1-3)Gal
# Summary of the method: as §1
# [24] = target: GalNAc(b1-3)Gal(a1-4)Gal(b1-4)GlcNAc
# Summary of the method: as §1
# [25] = target: GalNAc(b1-3)Gal(a1-4)Gal(b1-4)GlcNAc(b1-3)Gal(b1-4)Glc
# Summary of the method: as §1
# [26] = target: GalNAc(b1-3)Gal(a1-6)Gal(b1-4)Glc
# Summary of the method: as §1
# [27] = target: GalNAc(b1-3)GalNAc
# Summary of the method: as §1
# [28] = target: GalNAc(b1-3)GlcNAc
# Summary of the method: as §1
# [29] = target: GalNAc(b1-4)Gal(b1-4)Glc
# Summary of the method: as §1
# [30] = target: GalNAc(b1-4)GlcNAc
# Summary of the method: as §1
# [31] = target: GalNAc(b1-4)GlcNAc(b1-2)Man
# Summary of the method: as §1
# [32] = target: GalNAc(b1-4)GlcNAc(b1-2)Man(a1-3)[GalNAc(b1-4)GlcNAc(b1-2)Man(a1-6)]Man(b1-4)GlcNAc(b1-4)GlcNAc
# Summary of the method: as §1
# [33] = target: GalNAc(b1-4)GlcNAc(b1-3)GalNAc(b1-4)GlcNAc
# Summary of the method: as §1
# [34] = target: GalNAc(b1-4)GlcNAc6S
# Summary of the method: as §1
# [35] = target: GalNAc(b1-6)GalNAc
# Summary of the method: as §1
# [36] = target: GalNAc3S(b1-4)GlcNAc
# Summary of the method: as §1
# [37] = target: GalNAc3S(b1-4)GlcNAc3S
# Summary of the method: as §1
# [38] = target: GalNAc3S(b1-4)[Fuc(a1-3)]GlcNAc
# Summary of the method: as §1
# [39] = target: GalNAc4S6S(b1-4)GlcNAc
# Summary of the method: as §1
# [40] = target: GalNAc6S(b1-4)GlcNAc
# Summary of the method: as §1
# [41] = target: Glc(a1-4)Glc
# Summary of the method: as §1
# [42] = target: Glc(a1-4)Glc(a1-4)Glc(a1-4)Glc
# Summary of the method: as §1
# [43] = target: Glc(a1-6)Glc(a1-6)Glc
# Summary of the method: as §1
# [44] = target: Glc(a1-6)Glc(a1-6)Glc(a1-6)Glc
# Summary of the method: as §1
# [45] = target: Glc(b1-4)Glc
# Summary of the method: as §1
binder,measurement,setting,value
RBMC2 (Vibrio cholerae) (protein) KISVRSGFAIDAIGASASTLVGGTGGNLNAAVNVKDIKAIDLTWGKYYWGGYHLLALDFRMSNGSVISMGSKNYAYSKQTERFTVPAGSRIKGIKAWTAGWLLDGVQFELA,glycan array binding signal (z-score),[1],-0.368
same,glycan array binding signal (z-score),[2],-0.273
same,glycan array binding signal (z-score),[3],-0.303
same,glycan array binding signal (z-score),[4],-0.305
same,glycan array binding signal (z-score),[5],-0.263
same,glycan array binding signal (z-score),[6],-0.175
same,glycan array binding signal (z-score),[7],-0.108
same,glycan array binding signal (z-score),[8],-0.406
same,glycan array binding signal (z-score),[9],-0.038
same,glycan array binding signal (z-score),[10],-0.438
same,glycan array binding signal (z-score),[11],-0.217
same,glycan array binding signal (z-score),[12],-0.201
same,glycan array binding signal (z-score),[13],-0.328
same,glycan array binding signal (z-score),[14],-0.337
same,glycan array binding signal (z-score),[15],-0.358
same,glycan array binding signal (z-score),[16],-0.283
same,glycan array binding signal (z-score),[17],-0.426
same,glycan array binding signal (z-score),[18],-0.293
same,glycan array binding signal (z-score),[19],-0.285
same,glycan array binding signal (z-score),[20],-0.314
same,glycan array binding signal (z-score),[21],-0.225
same,glycan array binding signal (z-score),[22],-0.401
same,glycan array binding signal (z-score),[23],-0.362
same,glycan array binding signal (z-score),[24],-0.197
same,glycan array binding signal (z-score),[25],-0.466
same,glycan array binding signal (z-score),[26],-0.427
same,glycan array binding signal (z-score),[27],-0.375
same,glycan array binding signal (z-score),[28],-0.109
same,glycan array binding signal (z-score),[29],-0.284
same,glycan array binding signal (z-score),[30],-0.277
same,glycan array binding signal (z-score),[31],-0.406
same,glycan array binding signal (z-score),[32],1.47
same,glycan array binding signal (z-score),[33],-0.173
same,glycan array binding signal (z-score),[34],-0.098
same,glycan array binding signal (z-score),[35],-0.377
same,glycan array binding signal (z-score),[36],-0.423
same,glycan array binding signal (z-score),[37],-0.32
same,glycan array binding signal (z-score),[38],-0.208
same,glycan array binding signal (z-score),[39],-0.152
same,glycan array binding signal (z-score),[40],-0.322
same,glycan array binding signal (z-score),[41],-0.286
same,glycan array binding signal (z-score),[42],-0.345
same,glycan array binding signal (z-score),[43],-0.384
same,glycan array binding signal (z-score),[44],-0.018
same,glycan array binding signal (z-score),[45],-0.312

# Reference: the supplement of paper PMC8728848
